Experimental data: the supplement of paper PMC4723716
± gives the uncertainty stated by the source. In all, about 9,900 compounds were measured (“viability index relative to DMSO control”: median about 1, lowest 2% from about 0.85 on). The list shows a part of the results.

The compounds below were run on Plasmodium falciparum NF54 stage V gametocytes (assay: viability index relative to DMSO control (fraction); higher = less gametocyte killing). Details: 2.5 µM, library set: Broad Institute DOS, incubation time: 72 h.
Summary of the method: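 Viability index is the count of red-stained particles in a well divided by the plate mean of solvent-only wells. Particles of 20–70 µm2 were counted in one imaged field per well after one to two hours with 3 µl of 2.5 µM MitoTracker Red CMXRos and 0.13% saponin. Before staining, P. falciparum NF54 stage V gametocytes in serum-free medium (0.75% gametocytemia, 1.25% hematocrit, 10 µl, 1,536-well plates) were kept with compound at 2.5 µM for 72 hr at 37°C under low oxygen.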
In the case of `COc1ccc2c3c([nH]c2c1)[C@H](CO)N(CC1CC1)C[C@]31CN(C1)C(=O)NC1CCCC1`, the viability index is reported as 0.964 ± 0.041. Work on `C[C@@H]1CN([C@H](C)CO)C(=O)CCCn2nncc2CO[C@H]1CN(C)Cc1cccc2c1OCCCO2` yielded a viability index of 1.07 ± 0.038. `COc1ccc2c3c([nH]c2c1)[C@H](CO)N(C)C[C@]31CCN(CC1)C(=O)c1ccccn1` gave a viability index of 0.898 ± 0.089. With `CN(C[C@H]1[C@@H](c2ccccc2)[C@@H](CO)N1C(=O)C1CCC1)C(=O)c1ccncc1` the viability index was 1.07 ± 0.026. `COc1ccc(-c2ccccc2[C@@H]2[C@H](C#N)N(C(=O)C3CCC3)[C@H]2CO)cc1` was tested, and the viability index was 1.16 ± 0.12. For `N#C[C@H]1[C@H](c2ccccc2-c2ccccc2F)[C@H](CO)N1C(=O)c1ccccn1`, the viability index was 1.1 ± 0.063. Compound `C[C@@H]1CN([C@@H](C)CO)C(=O)c2cc(NC(=O)Nc3ccc4c(c3)OCO4)ccc2O[C@@H](C)CCCCO[C@H]1CN(C)C(=O)CCCN(C)C` has a viability index of 1.04 ± 0.0094. `C[C@H]1CN([C@@H](C)CO)C(=O)CCCn2cc(nn2)CO[C@H]1CN(C)C(=O)NC1CCCCC1` was tested, and the viability index was 1.06 ± 0.015. `C[C@H](CO)N1C[C@H](C)[C@H](CN(C)C(=O)Nc2ccc3c(c2)OCO3)Oc2ccc(NC(=O)Cn3cnnn3)cc2C1=O` was tested, and the viability index was 0.979 ± 0.019. `O=C(Nc1ccc(C(F)(F)F)cc1)Nc1ccc2c(c1)[C@H]1C[C@H](CC(=O)N3CCc4ccccc4C3)O[C@H](CO)[C@H]1O2` showed a viability index of 1.03 ± 0.018. `O=C(C[C@H]1CC[C@H]2[C@@H](COC[C@@H](O)CN2S(=O)(=O)c2cccc(Cl)c2)O1)NC1Cc2ccccc2C1` gave a viability index of 1 ± 0.054. `N#C[C@@H]1[C@H](c2ccccc2-c2cccc(F)c2)[C@H](CO)N1C(=O)Nc1cc(F)ccc1F` showed a viability index of 1.06 ± 0.082. `C[C@H]1CN([C@@H](C)CO)C(=O)c2c(c3ccccc3n2C)-c2ccccc2CO[C@H]1CN(C)C` was tested, and the viability index was 1.04 ± 0.052. `COc1ccc2c3c([C@@H](CO)N(C[C@]33CN(C3)C(=O)c3cccnc3)C(=O)Nc3ccc(F)cc3)n(C)c2c1` gave a viability index of 0.969 ± 0.06. Work on `COc1ccc([C@H]2C/C=C\C[C@H](c3cccc(Cl)c3)NC(=O)[C@@H](c3ccccc3)CC(=O)N2)c(OC)c1` yielded a viability index of 0.978 ± 0.039. With `C[C@@H]1CN([C@H](C)CO)C(=O)CCCn2nncc2CO[C@H]1CN(C)S(=O)(=O)c1ccccc1C#N` the viability index was 1.02 ± 0.032. `C/C=C/c1cnc2c(c1)C(=O)N([C@@H](C)CO)C[C@H](C)[C@H](CN(C)CC1CCOCC1)O2` was tested, and the viability index was 1.04 ± 0.048. `COc1ccc(S(=O)(=O)Nc2ccc3c(c2)C(=O)N([C@H](C)CO)C[C@H](C)[C@@H](CN(C)C(=O)Nc2c(C)noc2C)OCCCC[C@H](C)O3)cc1` was tested, and the viability index was 1.06 ± 0.14. Work on `Cc1noc(C)c1S(=O)(=O)Nc1ccc2c(c1)C(=O)N([C@@H](C)CO)C[C@@H](C)[C@@H](CN(C)C(=O)Nc1cccc3ccccc13)OCCCC[C@@H](C)O2` yielded a viability index of 0.893 ± 0.066. In the case of `CN(C)C(=O)C[C@H]1C=C[C@H](NC(=O)c2ccc(F)cc2)[C@H](CO)O1`, the viability index is reported as 1.12 ± 0.071. `C[C@H]1CN([C@@H](C)CO)C(=O)c2cc(C3=CCCCC3)cnc2O[C@H]1CN(C)S(=O)(=O)c1cn(C)cn1` was tested, and the viability index was 0.995 ± 0.016. In the case of `O=S(=O)(c1ccc(F)cc1)N1C[C@H]2[C@@H](c3ccccc31)[C@H](CO)N2Cc1ccccc1Cl`, the viability index is reported as 1.02 ± 0.042. For `CN(C)CC(=O)N1[C@@H](C#N)[C@H](c2ccccc2-c2ccccc2F)[C@@H]1CO`, the viability index was 1.06 ± 0.082. Work on `C[C@@H]1CN([C@H](C)CO)C(=O)CCCn2nncc2CO[C@@H]1CN(C)Cc1ccc(C(=O)Nc2ccccc2N)cc1` yielded a viability index of 1.049 ± 0.0049. `C/C=C/c1ccc([C@H]2[C@@H](CO)N(CCC)[C@H]2CNC(=O)CN2CCOCC2)cc1` gave a viability index of 1.02 ± 0.047. `C[C@@H]1CN([C@H](C)CO)C(=O)CCCn2nncc2CO[C@H]1CN(C)Cc1ccccc1C(=O)O` gave a viability index of 1.03 ± 0.016. Work on `C[C@H](CO)N1C[C@H](C)[C@@H](CN(C)C(=O)c2ccc(N3CCN(C)CC3)cc2)OCc2cn(nn2)CCCC1=O` yielded a viability index of 0.954 ± 0.032. Work on `C[C@H](CO)N1C[C@H](C)[C@@H](CN(C)C(=O)c2cnccn2)Oc2cc(C#CCC3CCCC3)ccc2S1(=O)=O` yielded a viability index of 1.05 ± 0.018. With `COc1ccc(C#Cc2ccc3c(c2)[C@H]2[C@H](CCN2Cc2nccs2)[C@H](CO)N3)cc1` the viability index was 1.05 ± 0.021. Compound `COc1cccc(-c2ccc([C@@H]3[C@@H](CO)N4C(=O)CNC[C@H]34)cc2)c1` has a viability index of 1.048 ± 0.0012. Work on `CO[C@H]1CN(C)C(=O)c2cc(NS(=O)(=O)c3cccc(Cl)c3)ccc2OC[C@@H](C)NC[C@@H]1C` yielded a viability index of 1.06 ± 0.052. For `COc1ccc([C@@H]2C/C=C\C[C@@H](c3ccc4c(c3)OCO4)NC(=O)CCC(=O)N2)c(OC)c1`, the viability index was 0.981 ± 0.06. `CO[C@H](CN(C)Cc1ccc2c(c1)OCO2)[C@H](C)CN(C(=O)Nc1ccc(F)cc1)[C@@H](C)CO` was tested, and the viability index was 1.03 ± 0.0043. `N#C[C@@H]1[C@@H](c2ccccc2)[C@H](CO)N1S(=O)(=O)c1cccc(F)c1` gave a viability index of 1.04 ± 0.056. In the case of `C[C@@H]1CCCCO[C@@H](CN(C)S(=O)(=O)c2ccccc2)[C@H](C)CN([C@H](C)CO)C(=O)c2cc(NC(=O)Nc3ccc4c(c3)OCO4)ccc2O1`, the viability index is reported as 1.06 ± 0.06. Compound `CO[C@H](CN(C)Cc1ccc(-c2ccccn2)cc1)[C@@H](C)CN(C(=O)Nc1ccc(F)cc1)[C@H](C)CO` has a viability index of 1.01 ± 0.061. `COCC(=O)N(C)C[C@H]1[C@H](c2ccccc2)[C@H](CO)N1C(=O)Cc1ccncc1` gave a viability index of 1.02 ± 0.04. Compound `CO[C@H]1CC[C@@H]2CCN(C)C(=O)[C@@H](C)N(C)C(=O)c3cccc(C#N)c3OC[C@@H]1O2` has a viability index of 1.02 ± 0.032. In the case of `C/C=C/c1cnc2c(c1)C(=O)N([C@H](C)CO)C[C@H](C)[C@H](CN(C)CC1CCOCC1)O2`, the viability index is reported as 1.01 ± 0.066. `Cc1noc(C)c1NC(=O)Nc1cccc2c1O[C@@H](CN(C)Cc1ccc(C(=O)Nc3ccccc3N)cc1)[C@H](C)CN([C@@H](C)CO)C2=O` was tested, and the viability index was 0.9218 ± 0.005. For `CO[C@H]1CN(C)C(=O)c2cc(NC(C)=O)ccc2OC[C@@H](C)N(Cc2ccncc2)C[C@H]1C`, the viability index was 1.07 ± 0.051. For `O=C(C[C@H]1CC[C@@H]2[C@H](COC[C@@H](O)CN2C(=O)Nc2ccc(F)cc2)O1)NC1CCC1`, the viability index was 0.976 ± 0.016. `CCN1Cc2cc(C(=O)Nc3nccs3)nc(-c3cccc(C4=CCCC4)c3)c2[C@H]1CCO` showed a viability index of 1.09 ± 0.019. For `COc1ccccc1-c1ccccc1[C@@H]1[C@@H](C#N)N(C(=O)CN(C)C)[C@@H]1CO`, the viability index was 1.09 ± 0.053. In the case of `CC(C)[C@@H]1C(=O)N[C@@H](c2cccc(Cl)c2)C/C=C/C[C@H](C)Oc2ccccc2C(=O)N1C.CC(C)[C@@H]1C(=O)N[C@@H](c2cccc(Cl)c2)C/C=C\C[C@H](C)Oc2ccccc2C(=O)N1C`, the viability index is reported as 1.02 ± 0.022.
